Data from article PMC6602471.
The other results are listed elsewhere or left out. At the low end of the ranking the order means little.

Each sequence was assayed against T1, ETS1 (UniProt P14921) (assay: custom PBM). Details: custom protein-binding microarray; buffer, salt, pH and temperature not stated; high values mean tight binding; double strand, one strand shown.
T1 sequence: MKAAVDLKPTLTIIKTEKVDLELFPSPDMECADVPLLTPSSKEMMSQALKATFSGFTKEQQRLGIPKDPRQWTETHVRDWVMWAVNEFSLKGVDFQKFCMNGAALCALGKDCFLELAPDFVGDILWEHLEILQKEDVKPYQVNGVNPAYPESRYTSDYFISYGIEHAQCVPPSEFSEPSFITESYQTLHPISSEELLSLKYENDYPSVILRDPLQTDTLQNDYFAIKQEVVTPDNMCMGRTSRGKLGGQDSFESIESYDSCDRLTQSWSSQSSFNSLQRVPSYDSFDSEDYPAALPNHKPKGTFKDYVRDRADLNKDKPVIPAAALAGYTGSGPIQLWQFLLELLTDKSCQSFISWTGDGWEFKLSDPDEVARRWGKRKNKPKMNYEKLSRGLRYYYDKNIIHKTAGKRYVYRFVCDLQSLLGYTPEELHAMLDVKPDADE
With “TGTCAGGTAAGGGAATGTAGATCACGTGAATGAAAAGTCTTGATTCGCTTGACGCTGCTG” the binding signal (log fluorescence intensity) was 8.26.
“GAATAATTTCTGCCCTTATTCGCACGTGCCATAACAGTCTTGATTCGCTTGACGCTGCTG” was tested, and the binding signal (log fluorescence intensity) was 8.37.
“CGGAAGTGTCGTAAACGTCGGATATCCGGTTCTTCCGTCTTGATTCGCTTGACGCTGCTG” was tested, and the binding signal (log fluorescence intensity) was 12.1.
In the case of “ACCGGCTACCAGCTCCACCCACTTCAGGCCTTGTAGGTCTTGATTCGCTTGACGCTGCTG”, the binding signal (log fluorescence intensity) is reported as 8.18.
“GCTGCTTCGGTGCATACCCCACCGGATGTGACCCCGGTCTTGATTCGCTTGACGCTGCTG” gave a binding signal (log fluorescence intensity) of 10.3.
With “CAGCATAGGACTTCTTCCTTGAAGCAATTGATAACCGTCTTGATTCGCTTGACGCTGCTG” the binding signal (log fluorescence intensity) was 8.31.
In the case of “TAAACGGAAGACGGTTGTGGTAGTTCCGGGTATTAAGTCTTGATTCGCTTGACGCTGCTG”, the binding signal (log fluorescence intensity) is reported as 10.1.
With “GTGTATAGGATCCTATCCAACACACGTGTTAAAATGGTCTTGATTCGCTTGACGCTGCTG” the binding signal (log fluorescence intensity) was 8.11.
In the case of “TACGGCTACCAGCTCCACCCACTTCAGGCCTTGTAGGTCTTGATTCGCTTGACGCTGCTG”, the binding signal (log fluorescence intensity) is reported as 8.26.
Sequence “CACAATTTTTACAGTTATGTAGCACGCGTAACTCCTGTCTTGATTCGCTTGACGCTGCTG” has a binding signal (log fluorescence intensity) of 8.33.
For “TCTCGGGTAAGGGAATGTAGATCACGTGAATGAAAAGTCTTGATTCGCTTGACGCTGCTG”, the binding signal (log fluorescence intensity) was 8.16.
Work on “TACTGACTTATATATGCGAATGCACACGAATAGACCGTCTTGATTCGCTTGACGCTGCTG” yielded a binding signal (log fluorescence intensity) of 8.46.
Sequence “TCAAGGGAAGACGGTTGTGGTAGTTCCGGGTATTAAGTCTTGATTCGCTTGACGCTGCTG” has a binding signal (log fluorescence intensity) of 8.62.
In the case of “CCGGGACTTGACCCAACTCTGCCACGTGGGTCGTTTGTCTTGATTCGCTTGACGCTGCTG”, the binding signal (log fluorescence intensity) is reported as 8.32.
In the case of “GATTAATTTCTGCCCTTATTCGCACGTGCCATTACAGTCTTGATTCGCTTGACGCTGCTG”, the binding signal (log fluorescence intensity) is reported as 8.11.
For “GTGTATAGGATCTCATCCAACACACGTGTTAAAATGGTCTTGATTCGCTTGACGCTGCTG”, the binding signal (log fluorescence intensity) was 8.18.
Work on “CATCATAGGACTTCTTCCCTGAAGCAATTGATAACCGTCTTGATTCGCTTGACGCTGCTG” yielded a binding signal (log fluorescence intensity) of 8.16.
Work on “CAGCATAGGACTTCTTCCCTGAAGCAACTGATAACCGTCTTGATTCGCTTGACGCTGCTG” yielded a binding signal (log fluorescence intensity) of 8.3.
Sequence “TAAAGGGAAGACGGTTGTGGTAGTTCAGGGTATTAAGTCTTGATTCGCTTGACGCTGCTG” has a binding signal (log fluorescence intensity) of 8.12.
Work on “GATTAATTTCTGCCCTTATTCGCACGTGCCTTAACAGTCTTGATTCGCTTGACGCTGCTG” yielded a binding signal (log fluorescence intensity) of 8.2.
“TATCGGGTAAGGGAATGTAGATCACGTGAATGAAAAGTCTTGATTCGCTTGACGCTGCTG” gave a binding signal (log fluorescence intensity) of 8.13.
For “TCCGGCTACCAGCTCCACCCACTCCAGGCCTTGTAGGTCTTGATTCGCTTGACGCTGCTG”, the binding signal (log fluorescence intensity) was 8.29.
“GCTGCTGCGGTGCATACCCCACTGGATGTGACCCCGGTCTTGATTCGCTTGACGCTGCTG” gave a binding signal (log fluorescence intensity) of 8.34.
For “CAGCATAGGACTTCTTACCTGAAGCAATTGATAACCGTCTTGATTCGCTTGACGCTGCTG”, the binding signal (log fluorescence intensity) was 8.17.
Work on “GGAAAAAGGCCCAGGGTAACACCGGGAGTGGGCTTAGTCTTGATTCGCTTGACGCTGCTG” yielded a binding signal (log fluorescence intensity) of 8.24.
“GGAAAAAGGCCCAGGGTAACTCCGGAAGTGGGCTTAGTCTTGATTCGCTTGACGCTGCTG” was tested, and the binding signal (log fluorescence intensity) was 10.5.
With “CGGAAGTGTCGTAAACGTCGGATGTCCGGTTCTTCTGTCTTGATTCGCTTGACGCTGCTG” the binding signal (log fluorescence intensity) was 9.65.
Sequence “GGAAAAAGGGCCAGGGTAACACCGGAAGTGGGCTTAGTCTTGATTCGCTTGACGCTGCTG” has a binding signal (log fluorescence intensity) of 12.
“GCTGCTGCGGTGCACACCCCACCGGATGTGACCCCGGTCTTGATTCGCTTGACGCTGCTG” gave a binding signal (log fluorescence intensity) of 10.3.
“CTGGGACTTGACCGAACTCTGCCACGTGGGTCGTTTGTCTTGATTCGCTTGACGCTGCTG” showed a binding signal (log fluorescence intensity) of 8.43.
“CTGGGACTTGACCCAACACTGCCACGTGGGTCGTTTGTCTTGATTCGCTTGACGCTGCTG” was tested, and the binding signal (log fluorescence intensity) was 8.04.
Sequence “GCCGGCTACCAGCTCCACCCACTTCAGGCCTTGTAGGTCTTGATTCGCTTGACGCTGCTG” has a binding signal (log fluorescence intensity) of 8.09.
Work on “CACAATTTTTACAGTAATGTAGCACACGTAACTCCTGTCTTGATTCGCTTGACGCTGCTG” yielded a binding signal (log fluorescence intensity) of 8.28.
“TAAAGGGAAGACGGTAGTGGTAGTTCCGGGTATTAAGTCTTGATTCGCTTGACGCTGCTG” gave a binding signal (log fluorescence intensity) of 8.7.
“CACAATTTTTACAGTAATGTAGCACGCGTAACTCCCGTCTTGATTCGCTTGACGCTGCTG” showed a binding signal (log fluorescence intensity) of 8.13.
“TCCGGCTACCAGCTCCACCCACGTCAGGCCTTGTAGGTCTTGATTCGCTTGACGCTGCTG” gave a binding signal (log fluorescence intensity) of 8.09.
With “GGAAAAAGGCCCAGGGCAACACCGGAAGTGGGCTTAGTCTTGATTCGCTTGACGCTGCTG” the binding signal (log fluorescence intensity) was 12.2.
“TCCGGCTACCAGCTCCACCCACTTCAGCCCTTGTAGGTCTTGATTCGCTTGACGCTGCTG” was tested, and the binding signal (log fluorescence intensity) was 8.15.
In the case of “CAGCATAGGACTTCTTCCCTGACGCAATTGATAACCGTCTTGATTCGCTTGACGCTGCTG”, the binding signal (log fluorescence intensity) is reported as 8.32.
In the case of “GCTGCTGCGGTGCATACCCCACCGGATGTGAACCCGGTCTTGATTCGCTTGACGCTGCTG”, the binding signal (log fluorescence intensity) is reported as 10.
“GATTAATTTCTGCCCTTATTCGCACGTGCCAGAACAGTCTTGATTCGCTTGACGCTGCTG” was tested, and the binding signal (log fluorescence intensity) was 8.14.
“CGGAAGTGTCGTAAACGTCGGATATCCGGTTCATCTGTCTTGATTCGCTTGACGCTGCTG” gave a binding signal (log fluorescence intensity) of 12.1.
With “CGAAAAAGGCCCAGGGTAACACCGGAAGTGGGCTTAGTCTTGATTCGCTTGACGCTGCTG” the binding signal (log fluorescence intensity) was 12.
For “CTGGGACGTGACCCAACTCTGCCACGTGGGTCGTTTGTCTTGATTCGCTTGACGCTGCTG”, the binding signal (log fluorescence intensity) was 8.25.
For “TCCGGCTACCAGCTCCACCCACTTCAAGCCTTGTAGGTCTTGATTCGCTTGACGCTGCTG”, the binding signal (log fluorescence intensity) was 8.4.
“GATTAATTTCTGCCCTTATCCGCACGTGCCATAACAGTCTTGATTCGCTTGACGCTGCTG” was tested, and the binding signal (log fluorescence intensity) was 8.09.
Work on “GCGTATAGGATCCCATCCAACACACGTGTTAAAATGGTCTTGATTCGCTTGACGCTGCTG” yielded a binding signal (log fluorescence intensity) of 8.01.
In the case of “CTGGGACTTGACCCAACTCTGCCACGTGGGTCATTTGTCTTGATTCGCTTGACGCTGCTG”, the binding signal (log fluorescence intensity) is reported as 8.21.
“CACAATTTTTACAGTAATGTAGCACCCGTAACTCCTGTCTTGATTCGCTTGACGCTGCTG” showed a binding signal (log fluorescence intensity) of 8.29.
For “GTGTATAGGATCCCATCCAACACACTTGTTAAAATGGTCTTGATTCGCTTGACGCTGCTG”, the binding signal (log fluorescence intensity) was 8.08.
“TACTGACTTATATATGCGAATGCACATGAATCGACCGTCTTGATTCGCTTGACGCTGCTG” gave a binding signal (log fluorescence intensity) of 8.34.
“TAATGACTTATATATGCGAATGCACATGAATAGACCGTCTTGATTCGCTTGACGCTGCTG” gave a binding signal (log fluorescence intensity) of 8.29.
